# Data: paper PMC4336329 (PLoS ONE, 2015)
# The campaign covered roughly 310,000 compounds. About 2,200 (0.71%) showed an effect of 50% or more. The effect is printed as a negative number. Some of the results follow.
# Target: human ether-à-go-go-related gene (hERG) potassium channel (human, UniProt Q12809)
# Experiment: primary screen, population patch clamp on CHO cells stably expressing hERG
# human ether-à-go-go-related gene (hERG) potassium channel, sequence (Q12809 whole entry, looked up): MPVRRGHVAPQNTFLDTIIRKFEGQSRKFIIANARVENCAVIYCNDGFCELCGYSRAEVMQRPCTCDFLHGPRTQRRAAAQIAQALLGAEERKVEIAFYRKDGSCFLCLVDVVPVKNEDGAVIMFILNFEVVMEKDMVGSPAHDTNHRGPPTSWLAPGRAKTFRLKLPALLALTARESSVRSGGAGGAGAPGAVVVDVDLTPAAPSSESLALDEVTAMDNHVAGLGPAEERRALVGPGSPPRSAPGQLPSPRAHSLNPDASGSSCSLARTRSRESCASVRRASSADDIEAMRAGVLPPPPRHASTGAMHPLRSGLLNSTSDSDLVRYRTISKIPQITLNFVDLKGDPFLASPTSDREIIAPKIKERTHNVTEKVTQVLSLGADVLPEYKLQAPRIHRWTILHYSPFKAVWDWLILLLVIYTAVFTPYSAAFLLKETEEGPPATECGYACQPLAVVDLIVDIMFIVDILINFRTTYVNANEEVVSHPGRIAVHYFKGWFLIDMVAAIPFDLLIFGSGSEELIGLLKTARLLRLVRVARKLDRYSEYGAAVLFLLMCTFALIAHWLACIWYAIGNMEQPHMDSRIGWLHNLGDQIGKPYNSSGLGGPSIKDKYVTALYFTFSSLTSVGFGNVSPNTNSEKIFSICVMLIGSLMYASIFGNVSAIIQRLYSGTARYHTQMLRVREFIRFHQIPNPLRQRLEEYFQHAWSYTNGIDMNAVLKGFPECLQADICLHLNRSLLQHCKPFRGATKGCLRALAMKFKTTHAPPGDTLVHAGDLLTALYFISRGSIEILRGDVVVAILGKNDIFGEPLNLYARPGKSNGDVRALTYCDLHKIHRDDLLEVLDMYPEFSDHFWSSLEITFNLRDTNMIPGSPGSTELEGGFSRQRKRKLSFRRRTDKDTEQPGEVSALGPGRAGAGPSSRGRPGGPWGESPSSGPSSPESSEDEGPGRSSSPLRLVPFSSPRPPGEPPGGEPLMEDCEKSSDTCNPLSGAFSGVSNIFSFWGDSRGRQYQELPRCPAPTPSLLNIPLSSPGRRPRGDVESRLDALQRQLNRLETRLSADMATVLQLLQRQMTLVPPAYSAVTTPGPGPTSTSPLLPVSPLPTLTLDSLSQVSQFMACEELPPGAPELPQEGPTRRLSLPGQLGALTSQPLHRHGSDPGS
row,Compound,"hERG current change (%, negative = inhibition) at 1uM [%]"
1,Cc1nn(C(C)C(=O)NC2C(=O)N3C(C(=O)O)=C(CSc4nnnn4C)CSC23)cc1Cl (stereo not shown),11.5
2,O=S(=O)(c1ccc(SCc2ccccc2F)nc1)N1CCCC1,8.97
3,O=C(Cc1ccccc1F)Nc1ccccc1-c1ccccc1,16.3
4,CCCCNS(=O)(=O)c1ccc(OC)cc1,12.1
5,O=C(Cn1c(C(=O)N2CCc3ccccc3C2)cc2sccc21)c1ccccc1,7.57
6,O=C(NCc1ccncc1)C1CCN(S(=O)(=O)c2ccc(F)cc2)CC1,7.36
7,COc1ccc(Cn2nnnc2C(c2ccccn2)N2CCN(c3cc(Cl)ccc3C)CC2)cc1 (stereo not shown),4.32
8,Cc1c(C(=O)c2ccccc2)c(=O)n(C)c(=O)n1C,9.65
9,N#Cc1cccc(NC(=O)Cn2cnc(S(=O)(=O)N3CCCC3)c2)c1,12.5
10,CCOC(=O)c1ccc(NC(=O)Nc2ccn(C)n2)cc1,2
11,Cc1ccc(C)c(Oc2coc3cc(OC(=O)c4cccs4)ccc3c2=O)c1,9.17
12,CCc1cccc(C)c1NC(=O)CN1CCN(S(=O)(=O)c2ccc(C(C)(C)C)cc2)CC1,4.59
13,CCO/C(C)=C1/SC(=S)NC1=O,8.44
14,CCN(CC(=O)Nc1cc(S(=O)(=O)N2CCCCC2)ccc1C)Cc1ccccc1,11.6
15,CC1=NN(Cc2ccccc2)C(=O)/C1=C/c1ccc(N(C)C)cc1,12.5
16,COc1ccc(-c2nsc(SCC(=O)NCC3CCCO3)n2)cc1 (stereo not shown),16.6
17,CN(CC(=O)NCc1ccccn1)S(=O)(=O)c1ccc(F)cc1,2.7
18,Cc1ccc(Sc2ncccc2COC(=O)Nc2c(C)cccc2C)cc1,1.3
19,Cc1cc(-c2nc(C)c(C(=O)NN)s2)no1,15.8
20,CC1CCCCC1NC(=O)CCCCCn1c(=S)[nH]c2ccsc2c1=O (stereo not shown),25.7
21,Cc1cc(NC(=O)COC(=O)c2ccc([N+](=O)[O-])cc2Cl)no1,-0.0199
22,C/C(N)=C(/C#N)C(=O)COC(=O)c1ccc(C)c(S(=O)(=O)N2CCCCC2)c1,8.62
23,Cc1ccc(-c2nnn(CC(=O)N(Cc3cccs3)C(C(=O)NCC3CCCO3)c3ccco3)n2)o1 (stereo not shown),-0.222

row,Compound,"hERG current change (%, negative = inhibition) at 1uM [%]"
1,O=C1c2ccccc2NC(c2ccccc2O)N1NS(=O)(=O)c1ccccc1 (stereo not shown),-1.21
2,Cc1nonc1NC(=O)CSc1nc2ccccc2cc1C#N,11.7
3,Oc1ccc(Cl)cc1N=Nc1ccccc1,0.683
4,C=CCN(CC=C)C(=S)Nc1ccc(OC)c(OC)c1,5.85
5,CC(Oc1ccc(Cl)cc1)c1ccnn1S(=O)(=O)c1ccc(Cl)cc1 (stereo not shown),7.5
6,CP(=O)(Nc1cc(Cl)ccc1Cl)c1nc2c(s1)CCCC2 (stereo not shown),4.84
7,COc1ccc(N(CC(=O)NCc2ccc(Cl)cc2)S(=O)(=O)c2ccccc2[N+](=O)[O-])c(OC)c1,2.71
8,CC(CC(=O)NCCc1ccc(S(N)(=O)=O)cc1)c1ccccc1 (stereo not shown),17.2
9,Cc1ccc(C)c(N=Cc2cc3c(cc2[N+](=O)[O-])OCO3)c1,13.5
10,COc1ccc([C@H]2CC(=O)C=C(c3cc(C)ccc3F)C2)cc1,9.63
11,C/C(=C/C(=O)N1CCc2ccccc21)C(=O)O,6.02
12,c1cc(-c2nnc(-c3ccncc3)o2)ccn1,15.3
13,CC1(C)CC(NC(=O)C23CCC(C)(/C(=N/O)C2)C3(C)C)CC(C)(C)N1 (stereo not shown),3.83
14,O=C(CNS(=O)(=O)/C=C/c1ccccc1)OCC(=O)N1CCC(Cc2ccccc2)CC1,1.78
15,CCOC(=O)C1CCN(S(=O)(=O)c2nc3nc(C)cc(C)n3n2)CC1,0.508
16,Cc1ccc2nc(-c3cccnc3)oc2c1,16.3
17,CCc1nnc(NS(=O)(=O)c2ccc(NCc3ccccc3O)cc2)s1,15.4
18,COc1ccc(CC(=O)Nc2nc(C)cs2)cc1,9.78
19,COc1ccccc1N1CCN(C(=O)c2cc3c(C)nc4ccccc4c3o2)CC1,8.29
20,CCC(Cc1ccccc1)NC(=O)C1CCCCC1 (stereo not shown),3.89
21,O=C1CC(c2ccco2)c2ccc3ccccc3c2N1 (stereo not shown),-1.85
22,CCOC(=O)C1=NN(c2ccccc2)C2(S1)SC(C(C)=O)=C(C)N2c1ccccc1 (stereo not shown),10.1
23,CCn1c(=O)c2c3c(sc2n2c(SCc4ccc(F)cc4)nnc12)CCCC3,-0.131

row,Compound,"hERG current change (%, negative = inhibition) at 1uM [%]"
1,Cc1ccc(F)c(NC(=O)c2c(-c3ccccc3)noc2C)c1,1.1
2,CSc1ccc2nnc(-c3cccc(F)c3)n2n1,-4.53
3,Cc1ccc(N(CC(=O)N2CCc3ccccc32)C2=NC(=O)CS2)cc1,13.9
4,CC12CCC(=O)N1C(C(=O)Nc1nc(-c3cc(F)ccc3F)cs1)CS2 (stereo not shown),6.92
5,Cc1nc(Cl)c(C(=O)NCc2ccccc2)c(C)c1[N+](=O)[O-],7.31
6,Cc1ccc(C)c(S(=O)(=O)C(C#N)c2nc3ccccc3nc2N2CCCC2)c1 (stereo not shown),2.59
7,CSc1nc2c(c(=O)[nH]1)C(c1cccc(Cl)c1)CC(=O)N2 (stereo not shown),6.55
8,COc1ccc(/C=N/NC(=O)CNS(=O)(=O)c2ccc(C)cc2)cc1,15
9,COc1ccccc1CNC(=O)Cn1ccsc1=N.Cl,4.74
10,Cc1ccc(C(=O)c2coc3ccc(OCC(=O)O)cc23)cc1,6.79
11,CCCCc1cc(=O)oc2cc(OCc3cc(OC)c(OC)c(OC)c3)c(Cl)cc12,18.1
12,CCn1c(CCCOc2ccc(Cl)cc2Cl)n[nH]c1=S,9.72
13,CC(C)OCC(O)CSc1ccccn1 (stereo not shown),-6.78
14,CCOC(=O)c1ccc2nc(C)c3c(c2c1)OC(C)C3 (stereo not shown),-6.37
15,Cc1ccccc1NC(=O)C(NC1CCCCC1)C(C)C (stereo not shown),5.28
16,O=C(Cn1cccc1C(=O)c1ccccc1)NCc1ccccc1Cl,13.7
17,c1ccc(-c2nc3ccccc3nc2N2CCOCC2)cc1,-10.6
18,Cc1ccccc1CC1(CO)CCCN(Cc2ccccc2Cl)C1 (stereo not shown),6.77
19,NC(=O)CSc1nnc(NC(=O)c2cccc(S(=O)(=O)N3CCCCC3)c2)s1,19.1
20,Cc1noc(C)c1COc1ccccc1C(=O)NCCOc1ccccc1F,19.8
21,CN=C1SC(CC(=O)Nc2ccc(C(C)=O)cc2)C(=O)N1C (stereo not shown),-6.31
22,CCOc1ccc(C2C(C(=O)OC)=C(C)N=C3SCCC(=O)N32)cc1OCC (stereo not shown),9.53
23,O=C(Cc1cccc2ccccc12)N/N=C/c1ccc(OC(=O)/C=C/c2ccco2)cc1,8.69

row,Compound,"hERG current change (%, negative = inhibition) at 1uM [%]"
1,Cc1cccc(-n2c(O)c(C=NC3CCS(=O)(=O)C3)c3ccccc3c2=O)c1 (stereo not shown),5.75
2,O=C(NCc1ccccc1Br)C1CCCO1 (stereo not shown),22.3
3,CCCn1c(C(C)Nc2nc(-c3ccc(Cl)c([N+](=O)[O-])c3)cs2)nc2ccccc21 (stereo not shown),16.1
4,Cc1ccc(-n2nc(C)c3c(C(=O)OCC(=O)N(C)C4CCS(=O)(=O)C4)cc(-c4ccccc4)nc32)cc1 (stereo not shown),13.6
5,COc1ccc(NC(=O)CSC2=C(C#N)C(c3ccco3)C3=C(CCCC3=O)N2)c(OC)c1 (stereo not shown),-6.62
6,CC(C)NC(=O)c1nc2c(nnn2Cc2cccc(Cl)c2)c(=O)[nH]1,15.2
7,COc1cc(N/C(=N/S(=O)(=O)c2ccccc2)c2ccccc2)ncn1,12.2
8,O=C(CNC(=O)c1ccc(Br)o1)Nc1ncccc1O,12.7
9,COc1ccc(-c2csc(Cc3nnc(N4CCOCC4)n3-c3ccccc3)n2)cc1,14.8
10,COc1ccc2c(c1)C(c1ccccc1)=NNC(c1ccco1)=N2,0.252
11,O=S(=O)(NC1CCCC1)c1ccc(S(=O)(=O)N2CCN(c3ccccc3)CC2)cc1,-2.62
12,COc1cccc(NC(=O)C2CC2)c1,5.97
13,CCN1CCN=C1Nc1ccccc1,11.1
14,CN(C)C(CNC(=O)CCNC(=O)c1ccccc1Cl)c1ccco1 (stereo not shown),6.07
15,CCOc1ccc(CN(C)CC(=O)Nc2cc(C)c(C)cc2[N+](=O)[O-])cc1.CN(C)C=O,14.1
16,CCC1CCC(N2CCN(c3cccc(OC)c3)CC2)CC1 (stereo not shown),8.18
17,CCn1c(=O)c2ccccc2n(CC(=O)N2CCCc3ccccc32)c1=O,9.8
18,Nc1nc(SCC(=O)Nc2ccc(Cl)cc2C(F)(F)F)n[nH]1,13.2
19,CC(=O)C1=C(O)C(=O)OC1c1ccc(Cl)cc1 (stereo not shown),11.9
20,O=C(CSc1cccc2cccc(Cl)c12)NC1=NCCS1,2.37
21,CCN1C(=O)C(NC(C)=O)c2cc(OC)ccc21 (stereo not shown),6.3
22,CCOC(=O)c1sc(N(C)C)nc1-c1ccccc1,9.11
